Article PMC12040169 (PLOS Biology, 2025)
Some of the results follow.

The compounds below were run on T1, C. trachomatis L2/434/Bu expressing GFP (CTL2-GFP). Details: total inclusion area; 28.5 h, 10 µM; inhibitor.
T1 construct: L2/434/Bu GFP intracellular growth in HeLa cells
Parameters: species or system HeLa; C. trachomatis total inclusion area by high-content imaging, normalised to DMSO
Outline: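 High-content imaging followed the bulk GFP/resorufin measurement: fixed, Hoechst-stained cells were scored for GFP inclusions and host nuclei per well. Total inclusion area and count served as growth proxies, nuclei number as the viability proxy. MIC calculation matched the bulk assay.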

Compared with O=C1/C(=N\O)c2cc(Cl)ccc2N1Cc1ccccc1 [CBK288468], Cc1cccc(OCCSc2nc3c(N)ncn(Cc4ccccc4)c-3n2)c1 [CBK266843] is higher in “% of control remaining” value: 27.8754 for the first, 93.9485 for the second.

Compared with CN1CCN(C(=O)Nc2ccc(Cc3ccc(NC(=O)N4CCN(C)CC4)cc3)cc2)CC1 [CBK264852], CCOc1ccc(NC(=O)c2ccc(CN3CCOCC3)cc2)cc1 [CBK033557] is lower in “% of control remaining” value: 86.9263 for the first, 84.8414 for the second.

First: Cc1csc(C(Cc2cccs2)NC(=O)C2CCOC2)n1 (centres unmarked) [CBK285123]
Second: Cc1ccc(OCC(=O)N2CCCCC2c2nccs2)cc1 (centres unmarked) [CBK305091]
The “% of control remaining” value of the first is lower: 74.9291 for the first, 98.4007 for the second.

First: Cc1nc(C)n(CC2CCCN(Cc3cc(C#N)cs3)C2)n1 (centres unmarked) [CBK304787]
Second: Cc1ccc(C(=O)N2CCN(Cc3cc(=O)n4ccsc4n3)CC2)cc1 [CBK305057]
The “% of control remaining” value of the first is lower: 44.3416 for the first, 53.096 for the second.

Going from Cc1n[nH]nc1C(=O)N(C)CC(C)Oc1ccc(Cl)c(Cl)c1 (centres unmarked) [CBK306173] to Cc1cc(Cl)ccc1CNC(=O)/C=C/c1ccc(C(C)C)cc1 [CBK149615], the “% of control remaining” value rises from 62.9691 to 104.495.

Compared with COc1ccc(F)c(CN(CC2CCNCC2)C(=O)Nc2c(F)cccc2F)c1 [CBK049804], O=C(NCc1ccc(F)cc1)N(Cc1cccc(Cl)c1)CC1CCNCC1 [CBK119479] is lower in “% of control remaining” value: 88.4175 for the first, 85.0191 for the second.

Compared with COc1ccc(C)cc1CN(C)C(=O)c1cccc(NC(=O)C2CC2)c1 [CBK305414], COc1ccc(S(=O)(=O)N(C)CC(=O)Nc2ccc(C(N)=O)cc2)cc1C [CBK267278] is lower in “% of control remaining” value: 107.52 for the first, 92.6978 for the second.

First: COc1ccc(S(=O)(=O)N(C)CC(=O)Nc2ccc(S(N)(=O)=O)cc2)cc1C [CBK267333]
Second: CC(C)NS(=O)(=O)c1ccc(NC(=O)COc2ccc3ccccc3c2Br)cc1 [CBK267920]
The “% of control remaining” value of the first is lower: 97.936 for the first, 98.2965 for the second.

Going from CC(C)c1nc2c(c(=O)c3ccccc3n2C)c(=O)n1-c1ccccc1 [CBK287947] to COc1ccc(-c2nn(-c3ccccc3)cc2/C=C2\SC(N3CCC(C(N)=O)CC3)=NC2=O)cc1 [CBK265178], the “% of control remaining” value falls from 95.4763 to 79.2617.

First: O=C(Nc1ccccc1)N[C@H]1CO[C@H]2[C@@H]1OC[C@H]2OCc1ccccc1 [CBK289488]
Second: CCNC(=O)Nc1cc2ccccc2c(-c2cccnc2)n1 [CBK073787]
The “% of control remaining” value of the first is higher: 102.622 for the first, 98.1361 for the second.

Compared with CCOC(=O)NC(NCc1ccco1)(C(F)(F)F)C(F)(F)F [CBK057654], CCOC(=O)NC(=S)NCCCn1ccnc1 [CBK018272] is higher in “% of control remaining” value: 49.4619 for the first, 52.9011 for the second.

First: CN1CCN(CC(CC(=O)Nc2c(F)cccc2F)C(=O)O)CC1 (centres unmarked) [CBK286867]
Second: Cc1cc(NC(=O)C(=O)NCCN2CCN(S(C)(=O)=O)CC2)ccc1Br [CBK265401]
The “% of control remaining” value of the first is lower: 81.6904 for the first, 106.311 for the second.

Compared with O=C(c1ccco1)c1cnc2ccccn2c1=O [CBK010791], O=C(c1ccco1)N1CCN(c2cncc(-c3ccc(F)cc3F)n2)CC1 [CBK065818] is higher in “% of control remaining” value: 68.4787 for the first, 89.6434 for the second.

Going from O=C(c1cccs1)N1CCC(c2onc3c2CCCC3)CC1 [CBK285181] to O=C(c1ccccc1F)N1CCCC(c2cc3ncccc3cn2)C1 (centres unmarked) [CBK284710], the “% of control remaining” value rises from 95.2991 to 107.602.

First: N#Cc1cccc(C(=O)N2CCC3(CCN(C(=O)c4cc(F)c(F)cc4F)C3)C2)c1 (centres unmarked) [CBK131387]
Second: O=C(O)COCC(=O)N1CCC2(CC1)NC(=O)Cc1c2ccc2ccccc12 [CBK047168]
The “% of control remaining” value of the first is lower: 103.659 for the first, 110.658 for the second.

Compared with COc1cc(Nc2nc(-c3cccc(OC(F)(F)F)c3)cn3ccnc23)cc(OC)c1OC [CBK038036], COc1ccc(-c2nc3ncccc3cc2O)cc1C [CBK073700] is higher in “% of control remaining” value: 72.8405 for the first, 101.468 for the second.

Compared with O=C(O)CCC(=O)N1N=C(c2c(-c3ccccc3)c3cc(Br)ccc3[nH]c2=O)CC1c1ccc([N+](=O)[O-])cc1 (centres unmarked) [CBK267543], O=C(O)c1ccc(OCc2n[nH]c(=S)n2-c2ccc(Cl)cc2)cc1 [CBK014317] is lower in “% of control remaining” value: 114.847 for the first, 92.9326 for the second.

Compared with O=[N+]([O-])c1ccc(NCCNC(=S)Nc2ccc(Cl)cc2)nc1 [CBK263594], CCCc1ccc(S(=O)(=O)Nc2c(C(=O)OC)sc3ncccc23)cc1 [CBK050653] is higher in “% of control remaining” value: 82.2521 for the first, 101.838 for the second.

Going from CCCc1cc(C(=O)OC)c(NC(=O)CC2Nc3ccccc3NC2=O)s1 (centres unmarked) [CBK269451] to COCCCn1c(=O)[nH]c2ncc(-c3cccc(NC(C)=O)c3)nc21 [CBK064433], the “% of control remaining” value rises from 80.674 to 88.5985.

Going from Cc1ccc(OCCCCNCCN)c(Br)c1 [CBK265099G] to Cc1ccc(O)c(CN(CCCn2ccnc2)CC2CC=CCC2)c1 (centres unmarked) [CBK282829], the “% of control remaining” value falls from 102.154 to 92.0137.

Compared with CCC(NC(=O)Nc1cc(N2CCOCC2)ccc1Cl)c1cnn(C)c1 (centres unmarked) [CBK306844], Cn1ncnc1CCNS(=O)(=O)c1cccc(C(=O)N2CCCCC2)c1 [CBK306731] is lower in “% of control remaining” value: 77.8274 for the first, 47.7866 for the second.

First: CC1CC1C(=O)NCCN1CCC(O)(c2ccc(F)cc2)CC1 (centres unmarked) [CBK283168]
Second: CCn1ncc(CN2C3CCC2CC(O)(c2ccc(F)cc2)C3)c1C (centres unmarked) [CBK282973]
The “% of control remaining” value of the first is lower: 87.8623 for the first, 100.127 for the second.

Compared with CC1(C)CC(=O)c2cnc3cc(-c4ccco4)nn3c2C1 [CBK283142], CCCc1nc(C(=O)N2Cc3cnn(Cc4ccc(F)cc4)c3C2)cs1 [CBK307249] is lower in “% of control remaining” value: 95.4614 for the first, 88.9968 for the second.

First: Cc1nn(C(C)C)c(C)c1CN(CCCN(C)C)Cc1ccco1 [CBK282978]
Second: Cc1cccn2c(=O)c(/C=C3\SC(=S)N(CCCC(=O)O)C3=O)c(N3CCC(C)CC3)nc12 [CBK264793]
The “% of control remaining” value of the first is lower: 118.302 for the first, 120.105 for the second.

Compared with O=c1[nH]c(=O)c2cc(S(=O)(=O)NCC3(N4CCOCC4)CCCCC3)ccc2[nH]1 [CBK286390], CC(C)(C)c1n[nH]c(C2CN(C(=O)CCCn3cccn3)CCO2)n1 (centres unmarked) [CBK305198] is lower in “% of control remaining” value: 89.2947 for the first, 21.0532 for the second.
